Laboratory results taken from the supplement of paper PMC3334620.
In all, about 33,000 sequences were measured (“E-score (-0.5 to 0.5)”: median about -0.016, highest 2% from about 0.31 on). The list shows a part of the results.

These sequences were tested against Cst6 (UniProt P40535) (assay: PBM E-score (8-mer binding enrichment) (E-score (-0.5 to 0.5)); higher = stronger / more preferred TF binding; most listed sequences are background and not binding sites). Details: protein concentration: 200 nM; construct: GST-DNA-binding domain.
Method in brief: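 Each ungapped eight-base word and its reverse complement, pooled, received an E-score from the Universal PBM Analysis Suite. Underlying scans, normalised with masliner, recorded fluorescent anti-GST bound to GST-tagged yeast transcription factors. These were applied at about 100-200 nM to universal all-10-mer Agilent arrays double-stranded by primer extension.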

Sequence | PBM E-score
AGAGGCAC | 0.0217
CACACAAA | 0.165
GTGCGCGA | 0.136
ATATTGTG | 0.136
ATTAACAG | 0.0381
TAACTGAA | 0.105
ACTTTTCG | 0.103
TTAGAAAA | 0.193
CTGAGCTA | -0.0727
GCAGTGCA | -0.1
ACCACGGA | -0.311
CACTTGTA | 0.0874
ACAGGCGG | -0.104
AGGTACGG | -0.142
CAGAGTAG | -0.0569
ATGACATG | 0.351
CGCTGATA | -0.0681
ACGGCTGG | -0.135
TAAATATA | 0.291
ACTGGCCT | -0.0929
GCTTGGCA | -0.141
ACGACAAG | 0.0296
GACAGTCC | -0.317
CTTCGAGA | 0.0491
GTCAAAAA | 0.219

Sequence | PBM E-score
AAAGTGAC | 0.14
CCTAGTCA | -0.147
AGAAACGG | 0.0981
GCTGATTA | 0.239
GACGCGTA | 0.224
GGTAACAA | 0.28
CATACTAC | -0.0698
AGTACACG | 0.0113
GAAATCAC | 0.27
AAAATTCT | 0.144
CTGTTCCC | -0.214
CGGGGATC | -0.369
AGTCGCCG | -0.038
AAGTTGTC | 0.113
CAGCTCGA | -0.219
GGATGCTA | -0.164
ATGTCCCA | -0.259
ATTCCAAG | 0.117
AATCATAA | 0.191
ATGTGGTC | 0.0176
TAAGTGCA | 0.167
CCGCTACC | -0.205
AGACACTA | -0.087
ACCCAAAT | 0.0908
GATAGGGA | -0.161

Sequence | PBM E-score
GAGAAAGC | 0.14
CCAGTTGA | 0.13
GATAGATC | -0.0783
ACTCCTGA | -0.0557
AACCACGT | -0.0278
TACCTGCA | -0.0618
CACTCGGA | -0.0216
ACCCCGCT | -0.159
AACCTGGA | -0.037
CCCCTCAG | -0.4
CATACAAC | 0.12
CCGGATTC | -0.172
CTCCTACA | -0.152
AACCACTT | -0.0523
AGCTTCCC | -0.383
TGCTACAA | 0.0326
AAGTCTAA | -0.0219
CAATTTAG | 0.153
CGGGTCGC | -0.0753
TAGGTAAA | 0.116
TGTAGAAA | 0.151
TCTCATAA | 0.0305
ATGCTCAC | -0.102
CCTTCGCC | -0.244
ATTCGCGG | 0.0715

Sequence | PBM E-score
ACATCTCC | -0.0981
CTAATTAA | 0.176
AACAATAT | 0.37
CACCGGAG | -0.17
AGGGGAGC | -0.314
ACAAACCC | 0.00475
GGACGGCC | -0.185
TACGCCCA | -0.0701
CGGTATAG | -0.217
CATCCTTC | 0.114
CTTAATGC | 0.142
AAACAATT | 0.196
AAACGGTG | -0.0215
GAATTTCA | 0.0572
CTCATTGC | 0.105
CCAGGCAC | -0.149
CCCTCTCG | -0.397
CAACCAAC | -0.175
TTCGGAAA | 0.0278
ATTAGATA | 0.074
AGCCTCCA | -0.189
CTAGCCTA | -0.2
CCTGACGA | 0.182
CGCCCTTC | -0.0927
AGGACGGG | -0.316

Sequence | PBM E-score
TAGCGTAA | 0.238
CTCTGCGC | -0.107
AGTATTGC | -0.101
GGTACAAC | -0.0659
CAGAGTTC | -0.0592
CCCGCTAG | -0.231
GCTAAAAC | -0.066
CGCCTCAC | 0.135
GAACTTCA | -0.177
GGTGTCAA | 0.0296
AGTGCCGA | -0.00913
GAGATAGC | -0.00029
AGCCGCAC | 0.188
AACGTCAG | 0.371
CATCGTTC | -0.00332
AACGCTGT | 0.0633
AATATCCC | 0.0228
ATTAGGGC | -0.0911
CAAATGCG | 0.107
ATTGAACC | -0.00894
GCAGTTAA | 0.0624
TCCTACCA | -0.316
ATTCCTTG | -0.0393
GAAGGAAA | -0.144
TGAGGGCA | -0.164

Sequence | PBM E-score
GGGTCAAC | -0.0874
ACATCTAC | 0.138
GGGTTCGA | -0.268
GAACGTAC | -0.122
ATAACTCA | 0.075
CTCTTTAA | 0.00012
ACTCTTGA | -0.103
GGGCATAA | 0.0274
TCAATTAA | 0.117
CATACGTA | 0.383
GTGATCTA | 0.214
ACCACATA | 0.149
ACGCATCG | -0.105
AGGCTGAT | -0.161
CCAAAAAA | 0.279
GCTCCCCC | -0.379
GGAGCGAC | -0.182
CGTTGGGC | -0.087
GAACTCTA | -0.0178
CACACGAC | -0.0215
AAGTTGTG | 0.116
AACAAATA | 0.242
ATTACACG | 0.205
AAAAACGT | 0.107
AGGCTTAC | 0.0256

Sequence | PBM E-score
CGGCATAC | 0.0732
TCCCACGA | -0.0646
CCGGACTA | -0.0691
GCTAGGTA | -0.192
AGGGTAAG | -0.0709
TAAACGCA | 0.12
AGATGAAT | -0.00341
AATCAGTA | 0.187
GCGATGTA | 0.0729
AGTACCAG | -0.0881
AGTCTGTG | -0.0706
GGACGTGA | -0.0809
ACCTCTGC | -0.244
AATGCTTC | 0.0171
GAGTAAAC | -0.0479
ATTACGTA | 0.49
GTTAGAAC | 0.0107
AGCTCGGG | -0.13
AATGAGAC | -0.272
TCAACCAA | 0.0196
ACCTTGAT | 0.0175
TGATGTAA | 0.488
